In the supplement of paper PMC12582362:
Counter-ions that a name gives are not always drawn. About 30 (2%) of roughly 1,500 compounds showed activity.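 Rule for the calls: active = robust z-score below -2; a few such results were not called.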 The list shows a part of the results.

Each compound was assayed on optoTopBP1 Flp-In 293 T-REx (HEK293) cells (assay: light-induced TopBP1 condensate (nuclear foci) count, plate-normalised robust z-score vs non-control wells; higher = more TopBP1 condensates (negative = condensation inhibitor), active = hit call of the paper). Details: 10 µM; incubation time 2 h.

SMILES | light-induced TopBP1 condensate (z-score)
Cc1ccc(-c2ncc(Cl)cc2-c2ccc(S(C)(=O)=O)cc2)cn1 [Etoricoxib] | inactive: -0.0771
CC1CCc2c(N3CCC(O)CC3)c(F)cc3c(=O)c(C(=O)O)cn1c23 (configuration not stated) [Nadifloxacin] | inactive: -0.152
Cc1cc(=O)n(-c2ccccc2)n1C [Antipyrine] | inactive: 0.827
Clc1ccc(COC(Cn2ccnc2)c2ccc(Cl)cc2Cl)c(Cl)c1 (configuration not stated) [Miconazole] | inactive: 0.0353
NC12CC3CC(CC(C3)C1)C2 [Adamantamine fumarate] | inactive: 0.749
CN(C)[C@@H]1C(O)=C(C(N)=O)C(=O)[C@@]2(O)C(O)=C3C(=O)c4c(O)ccc(Cl)c4[C@@H](O)[C@H]3C[C@@H]12 [Demeclocycline hydrochloride] | inactive: 0.813
O=C1c2ccccc2S(=O)(=O)N1CCCCN1CCN(c2ncccn2)CC1 [Ipsapirone] | inactive: -0.2
Cn1c([N+](=O)[O-])cnc1COC(N)=O [Ronidazole] | inactive: -0.788
COc1ccc(C(=O)NCc2ccc(OCCN(C)C)cc2)cc1OC [Itopride] | inactive: -0.155
N[C@@H](C(=O)N[C@@H]1C(=O)N2C(C(=O)O)=C(Cl)CS[C@H]12)c1ccccc1 [Cefaclor hydrate] | inactive: -0.181
CC(Oc1ccccc1)C(=O)N[C@@H]1C(=O)N2[C@@H]1SC(C)(C)[C@@H]2C(=O)O (some centres not stated) [Phenethicillin potassium salt] | inactive: 0.422
Brc1c(NC2=NCCN2)ccc2nccnc12 [Brimonidine L-Tartrate] | inactive: -1.88
CN(C)CCOC(=O)COc1ccc(Cl)cc1 [Meclofenoxate hydrochloride] | inactive: -0.223
CCCc1nc(C(C)(C)O)c(C(=O)O)n1Cc1ccc(-c2ccccc2-c2nnn[nH]2)cc1 [Olmesartan] | inactive: 0.485
N=C(N)N/N=C/c1c(Cl)cccc1Cl [Guanabenz acetate] | inactive: 0.547
Cc1ccc2c(Cl)cc(Cl)c(O)c2n1 [Chlorquinaldol] | active: -9.09
OC(CCN1CCCCC1)(c1ccccc1)C1CCCCC1 (configuration not stated) [Trihexyphenidyl-D,L Hydrochloride] | inactive: 0.636
CC1(C)S[C@@H]2[C@H](NC(=O)C(c3ccccc3)S(=O)(=O)O)C(=O)N2[C@H]1C(=O)O (some centres not stated) [Sulbenicillin sodium salt] | inactive: 0.523
CCC(=O)OCC(=O)[C@@]1(OC(=O)CC)[C@H](C)C[C@H]2[C@H]3[C@H]([C@@H](O)C[C@@]21C)[C@@]1(C)C=CC(=O)C=C1C[C@H]3Cl [Alclometasone dipropionate] | inactive: 0.331
CN(CCOc1ccc(CC2SC(=O)NC2=O)cc1)c1ccccn1 (configuration not stated) [Rosiglitazone Hydrochloride] | inactive: -1.21
COc1ccc(C[C@@H]2c3cc(OC)c(OC)cc3CC[N@+]2(C)CCC(=O)OCCCCCOC(=O)CC[N@@+]2(C)CCc3cc(OC)c(OC)cc3[C@H]2Cc2ccc(OC)c(OC)c2)cc1OC [Cisatracurium besylate] | inactive: -1.56

SMILES | light-induced TopBP1 condensate (z-score)
Nc1cc(-c2ccncc2)c[nH]c1=O [Amrinone] | inactive: 0.329
N#Cc1ccc(Oc2ccc3c(c2)COB3O)cc1 [Crisaborole] | inactive: 0.347
CC(N)C12CC3CC(CC(C3)C1)C2 (configuration not stated) [Rimantadine Hydrochloride] | inactive: -0.685
OCCOCCN1CCN(C(c2ccccc2)c2ccc(Cl)cc2)CC1 (configuration not stated) [Hydroxyzine dihydrochloride] | inactive: 0.678
C=CC1=C(C(=O)O)N2C(=O)[C@@H](NC(=O)/C(=N\OCC(=O)O)c3csc(N)n3)[C@H]2SC1 [Cefixime] | inactive: 0.556
Cc1cc(-n2c(=O)[nH]c(=O)n(C)c2=O)ccc1Oc1ccc(SC(F)(F)F)cc1 [Toltrazuril] | inactive: -0.166
Cc1ccccc1N1C(=O)c2cc(S(N)(=O)=O)c(Cl)cc2NC1C (configuration not stated) [Metolazone] | inactive: 0.703
COc1ccc2[nH]c([S+]([O-])Cc3ncc(C)c(OC)c3C)nc2c1 (configuration not stated) [Omeprazole] | inactive: 0.46
CCOC(=O)[C@H](CCc1ccccc1)N[C@@H](C)C(=O)N1CCC[C@H]1C(=O)O [Enalapril maleate] | inactive: -1.12
CO/N=C(\C(=O)N[C@@H]1C(=O)N2C(C(=O)O)=C(C[N+]3(C)CCCC3)CS[C@H]12)c1csc(N)n1 [Cefepime hydrochloride] | inactive: 0.305
CC(Oc1c(Cl)cccc1Cl)C1=NCCN1 (configuration not stated) [Lofexidine] | inactive: -0.165
CC1=C(CC(=O)O)c2cc(F)ccc2/C1=C\c1ccc([S+](C)[O-])cc1 (configuration not stated) [Sulindac] | inactive: -0.112
C[C@]12CC[C@@H]3c4ccc(O)cc4CC[C@H]3[C@@H]1C[C@@H](O)[C@@H]2O [Estriol] | inactive: 0.355
CN(C)CCCO[C@@H]1[C@H]2OC(C)(C)O[C@H]2O[C@@H]1[C@H](O)CO [Amiprilose hydrochloride] | inactive: -0.123
Cc1noc(NS(=O)(=O)c2ccc(N)cc2)c1C [Sulfisoxazole] | inactive: 0.115
CCc1cccc2c3c([nH]c12)C(CC)(CC(=O)O)OCC3 (configuration not stated) [Etodolac] | inactive: -0.0887
CC[N+](CC)(CC)CCC(O)(c1ccccc1)C1CCCCC1 (configuration not stated) [Tridihexethyl chloride] | inactive: 0.252
COc1ccc(-c2cc(=O)c3c(O)cc(O[C@@H]4O[C@H](CO[C@@H]5O[C@@H](C)[C@H](O)[C@@H](O)[C@H]5O)[C@@H](O)[C@H](O)[C@H]4O)cc3o2)cc1O [Diosmin] | inactive: -0.578
CCCCCCCN(CC)CCCC(O)c1ccc(NS(C)(=O)=O)cc1 (configuration not stated) [Ibutilide fumarate] | inactive: 1.01
c1ccc2[nH]c(-c3cscn3)nc2c1 [Tiabendazole] | inactive: -0.00966
CC1CS(=O)(=O)CCN1/N=C/c1ccc([N+](=O)[O-])o1 (configuration not stated) [Nifurtimox] | inactive: 0.226
